# Hit rate of the full screen: of about 310,000 compounds, about 14,000 (4.5%) showed an effect of 50% or more. Effects have a minus sign here. Some of the results follow.
# Target: human ether-à-go-go-related gene (hERG) potassium channel (human, UniProt Q12809)
# Test: primary screen, population patch clamp on CHO cells stably expressing hERG
# 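Note: peak tail current of the secondary pulse compared with the same well before compound.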
# human ether-à-go-go-related gene (hERG) potassium channel, sequence (Q12809 whole entry, looked up): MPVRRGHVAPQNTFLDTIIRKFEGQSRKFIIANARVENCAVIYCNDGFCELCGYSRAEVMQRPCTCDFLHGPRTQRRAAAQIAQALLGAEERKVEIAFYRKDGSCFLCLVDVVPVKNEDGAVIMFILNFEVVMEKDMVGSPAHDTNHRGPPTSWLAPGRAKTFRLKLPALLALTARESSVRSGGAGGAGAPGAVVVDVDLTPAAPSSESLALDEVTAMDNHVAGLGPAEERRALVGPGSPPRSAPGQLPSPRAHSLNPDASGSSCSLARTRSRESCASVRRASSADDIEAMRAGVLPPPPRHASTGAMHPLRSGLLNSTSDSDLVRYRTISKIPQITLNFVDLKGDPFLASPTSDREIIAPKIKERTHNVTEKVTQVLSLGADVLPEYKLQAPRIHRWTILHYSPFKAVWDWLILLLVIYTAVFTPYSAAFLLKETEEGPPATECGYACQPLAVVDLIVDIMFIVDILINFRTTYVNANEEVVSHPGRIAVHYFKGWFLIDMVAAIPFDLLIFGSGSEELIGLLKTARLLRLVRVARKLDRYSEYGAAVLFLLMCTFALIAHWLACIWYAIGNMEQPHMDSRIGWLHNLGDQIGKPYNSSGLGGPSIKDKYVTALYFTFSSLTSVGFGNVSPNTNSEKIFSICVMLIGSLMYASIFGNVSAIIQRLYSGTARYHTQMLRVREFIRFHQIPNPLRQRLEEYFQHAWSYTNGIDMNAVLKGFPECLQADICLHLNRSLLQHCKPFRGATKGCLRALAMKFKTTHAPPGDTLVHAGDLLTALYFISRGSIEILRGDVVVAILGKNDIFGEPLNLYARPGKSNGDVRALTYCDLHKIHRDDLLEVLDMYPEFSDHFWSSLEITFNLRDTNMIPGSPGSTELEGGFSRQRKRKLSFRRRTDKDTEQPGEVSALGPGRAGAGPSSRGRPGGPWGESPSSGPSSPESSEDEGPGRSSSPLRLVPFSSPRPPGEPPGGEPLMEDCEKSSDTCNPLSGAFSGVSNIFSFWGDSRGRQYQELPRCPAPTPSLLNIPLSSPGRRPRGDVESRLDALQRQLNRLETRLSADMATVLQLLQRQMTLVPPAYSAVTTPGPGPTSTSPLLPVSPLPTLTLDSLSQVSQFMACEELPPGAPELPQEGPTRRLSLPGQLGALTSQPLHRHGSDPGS
row,SMILES,"hERG current change (%, negative = inhibition) at 10uM [%]"
1,COC(=O)c1ccc(C)c(NC(=O)CCNC(=O)c2ccc([N+](=O)[O-])cc2)c1,-46.5
2,COc1cc(/C=N\NC(=O)c2ccc(=O)[nH]n2)cc(OC)c1OC,17.3
3,Cc1ccc(N)cc1N,8.58
4,CN(Cc1ccc(F)cc1)C(=O)COc1ccc2ccccc2c1,-8.79
5,COc1cc(CNCCO)ccc1OC1CCCC1.Cl,-6.23
6,COC(=O)C(Cc1ccc(O)cc1)NC(=O)C1CCN(S(=O)(=O)c2ccc(C)cc2)CC1 (centres unmarked),12.4
7,CCCCNS(=O)(=O)c1ccc(NS(=O)(=O)c2c(C)cc(C)cc2C)cc1,-11.3
8,O=C(N/N=C/c1ccnc2ccccc12)c1ccccc1O,11.1
9,COc1ccccc1NC(=O)N1c2ccc(F)cc2CCC1C (centres unmarked),-8.65
10,CC(C)c1cc(C(=O)Nc2cc(Br)ccc2O)no1,17.9
11,COc1ccc(Br)cc1/C=C\C(=O)NCc1cccnc1,-27.2
12,FC(F)Oc1ccc(N=C2SCC3CCCCN23)cc1 (centres unmarked),-16.7
13,Cn1c2ccccc2c(=O)c2c(O)cccc21,15.8
14,NC(=NCCc1c[nH]c2ccccc12)NS(=O)(=O)c1cc(F)ccc1F,8.26
15,CN(C)S(=O)(=O)c1cccc(NC(=O)COC(=O)CCC(=O)c2ccc(F)cc2)c1,-36
16,O=C(NCc1ccncc1)C(=O)N/N=C/c1ccc(OCc2ccccc2)cc1,-35.5
17,CCOc1ccc(S(=O)(=O)/N=C(/Nc2ccc(OC)cc2)c2ccccc2)cc1,4.41
18,CC(C)c1ccc(C(O)c2nc3ccccc3n2C)cc1 (centres unmarked),6.95
19,Cc1cc(C(=O)N/N=C/c2cccc(OC(=O)c3ccco3)c2)n[nH]1,4.6
20,CC(=O)N1CCN(CCN=CC2=C(O)CC(c3cccs3)CC2=O)CC1 (centres unmarked),8.53
21,Cc1oc(-c2ccc(Cl)cc2)nc1CN1CCC(C(=O)NCCCN2CCOCC2)CC1,-26.5
22,CSC(SC)=C(C(C)=O)C(=O)c1ccc(C)cc1,1.92
23,COc1ccc(NC(=O)CCNC(=O)c2ccco2)c(OC)c1,5.35

row,SMILES,"hERG current change (%, negative = inhibition) at 10uM [%]"
1,CC(=O)N1Cc2ccccc2CC1C(=O)N1CCN(c2ccccc2)CC1 (centres unmarked),-6.91
2,CC(C)CCC(O)(c1ccccc1)C(CN1CCOCC1)c1ccccc1.Cl (centres unmarked),-1.36
3,Cc1cc(-c2ccccc2)cc(-c2ccccc2)[n+]1CCc1ccccc1.[O-][Cl+3]([O-])([O-])[O-],-76.5
4,CCN(CC(=O)NCc1cccs1)C(=O)c1ccc(S(=O)(=O)Nc2ccccc2Cl)cc1,-26.8
5,Nc1c(Cl)cc(C(=O)c2c3ccccc3[n+]([O-])n2CCC[NH3+])cc1Cl.[Cl-],-20.9
6,CCCCC(CC)CNC(=O)C1CCCN(S(=O)(=O)c2cnc[nH]2)C1 (centres unmarked),3.45
7,CC(=O)C(C(C)=O)C1(O)C(=O)c2ccccc2C1=O,11.8
8,COc1ccccc1NC(=O)C[n+]1ccccc1C.[Cl-],15.3
9,CC(=O)c1ccc(N2CCC(c3cc(-c4ccc(Cl)cc4)n[nH]3)CC2)c([N+](=O)[O-])c1,-20.4
10,O=C(CSc1nc2ncccc2[nH]1)NCCc1ccccc1,2.3
11,Cc1ccccc1C(=O)NCCOc1ccccc1Cl,5.9
12,CCNC(=O)CN(c1ccc(Cl)cc1)S(=O)(=O)c1ccccc1,-14.4
13,Cn1ccc(NC(=O)Nc2ccc(Cl)cc2Cl)n1,0.0608
14,O=C(CSc1nnc(-c2cccnc2)n1Cc1ccco1)NCc1ccc2c(c1)OCO2,-33.2
15,COc1ccc(CNC(=S)Nc2cccc(OC)c2)cc1,-15.5
16,CCOC(CNC(=O)c1cc2c(=O)n(CC)c3ccccc3c2s1)OCC,12.7
17,CC(C)CN(c1ccccc1)S(=O)(=O)c1nnc(NC(=O)C(C)C)s1,8.25
18,OCCNc1nc2ccccc2nc1NCCO,18.4
19,Cc1ccc(CNC(=O)C(=O)NCCCn2ccnc2)cc1,4.1
20,CC(C)n1nc(C(=O)NCc2ccc3c(c2)OCO3)c2ccccc2c1=O,-11
21,CSCCC(NC(=O)c1ccco1)C(=O)NCC1CCCO1 (centres unmarked),9.8
22,CCN1CCN(c2ccc(S(=O)(=O)N3CCCCC3)cc2NC(=O)CC(NC(C)=O)c2ccccc2)CC1 (centres unmarked),23.6
23,O=C(c1cc([N+](=O)[O-])ccc1Cl)N1c2ccccc2Sc2ccccc21,5.91

row,SMILES,"hERG current change (%, negative = inhibition) at 10uM [%]"
1,Cc1ccc(NS(=O)(=O)c2ccc(C(=O)NCCCN3CCCC3=O)cc2)cc1,11.2
2,COc1ccc(C(=O)Nc2cccnc2)cc1S(=O)(=O)N1CCOCC1,-2.77
3,Cc1ccc(CNC(=O)CNC(=O)c2ccco2)cc1,22.7
4,Nn1c(Cc2ccccc2F)nnc1SCC(=O)N1CC(=O)Nc2ccccc21,8.77
5,CC(=O)Nc1ccc(S(=O)(=O)N2C3CCCC2CC(NC(=O)C2CCCCC2)C3)cc1 (centres unmarked),6.78
6,CSc1nc(-c2ccccc2)nn1C(=O)c1ccc(Cl)cc1,5.32
7,COc1cc2ncnc(NCc3ccccc3C)c2cc1OC,-7.36
8,CCCCNC(=O)CSc1nc(N)c(C(=O)Nc2ccc(OC)cc2)s1,-11.3
9,CC[n+]1cccc(-c2nc3ccccc3s2)c1.[I-],-0.683
10,COc1cc(C)c(Cl)cc1S(=O)(=O)N(C)C,1.59
11,Cc1ccc(N2C(=O)C3C(C2=O)C2C=CC3C23CC3)cc1 (centres unmarked),-5.56
12,COc1ccc(/C=C(/NC(=O)c2ccc(Br)cc2)C(=O)N2CCOCC2)cc1,5.5
13,C=C1CCN([C@@H](C)C(=O)NCc2ccc(OC)cc2)S(=O)(=O)c2ccccc21,-6.66
14,O=C1CCC/C(=N/NC(=O)c2ccc(NS(=O)(=O)c3cccs3)cc2)C1,12.9
15,O=[N+]([O-])c1cccc(/C=C/c2nc3ccc([N+](=O)[O-])cc3[nH]2)c1,-10.1
16,O=C1c2ccccc2C(O)N1Cc1ccco1 (centres unmarked),10.1
17,CC(CNCC1CCCO1)COc1ccccc1.O=C(O)C(=O)O (centres unmarked),16.3
18,CCC(=O)NC(=S)NNC(=O)c1ccc(NC(=O)c2ccccc2)cc1,-2.15
19,CCC(C(=O)Nc1c[nH]c(=O)[nH]c1=O)c1ccccc1 (centres unmarked),16.1
20,Cc1noc(C)c1C(=O)N1CCN(S(=O)(=O)c2cccc(Cl)c2Cl)CC1,-9.11
21,COc1ccc(C)cc1NC(=O)CSc1nc2scc(C)c2c(=O)[nH]1,14.8
22,CC1(C)CC(C(CC(=O)N2CCCC2)Cc2ccccc2)CCO1 (centres unmarked),-12.8
23,CC(C)(C)C(=O)Nc1ncccc1C(O)c1cccc(C(F)(F)F)c1 (centres unmarked),13.9

row,SMILES,"hERG current change (%, negative = inhibition) at 10uM [%]"
1,COc1cccc(OC)c1C(=O)NC(=S)Nc1ccc2c(c1)Cc1ccccc1-2,2.49
2,CCCCn1c(N)c(N(CCOC)C(=O)c2ccc(Cl)c(S(=O)(=O)N3CCCCC3)c2)c(=O)[nH]c1=O,11.8
3,CCCCCn1c(=O)[nH]c2cc(C(=O)NCCN3CCCCC3C)ccc2c1=O (centres unmarked),-15.9
4,CS(=O)(=O)c1sc2nc(-c3ccccc3)cc(-c3ccccc3)c2c1N,9.12
5,Cc1cc2c(cc1S(=O)(=O)CCC(=O)NC1CCC(C)CC1)OCC(=O)N2 (centres unmarked),-14.7
6,COc1cc(C(=O)N/N=C(\C)c2ccccn2)cc(OC)c1OC,9.93
7,O=C(N/C(=C/C=C/c1ccccc1)C(=O)N1CCOCC1)c1ccccc1Cl,-16.6
8,CCCOc1ccc(-c2nc(C#N)c(NCC3CCCO3)o2)cc1 (centres unmarked),-14.7
9,O=C(COC(=O)Cc1ccc(Br)cc1)NC1CC1,-18.8
10,O=C(O)Cc1ccc(Oc2ncc(C(F)(F)F)cc2Cl)cc1,12.2
11,CCOC(=O)c1c(NC(=O)CNC2CCCc3ccccc32)sc(C(N)=O)c1C (centres unmarked),25.5
12,O=C(COC(=O)c1nc(Cl)c(Cl)c(Cl)c1Cl)c1ccc[nH]1,-4.18
13,Cc1c(C(=O)Nc2ccc(S(=O)(=O)Nc3ncccn3)cc2)oc2ccc(F)cc12,23.5
14,CCc1nnc(NC(=O)CC23CC4CC(CC(C4)C2)C3)s1,15.7
15,CC(C)CC[n+]1ccn(C2=C([O-])c3ccccc3C(=O)/C2=N\S(=O)(=O)c2ccccc2)c1,-3.71
16,O=[N+]([O-])c1ccc(Cl)c(S(=O)(=O)Nc2cccc(-c3ccc(N4CCOCC4)nn3)c2)c1,-30
17,CC(=O)Nc1ccc(NC2=CC(=O)CC(C)(C)C2)cc1,8.98
18,Cc1nc2nc(COc3ccccc3)[nH]n2c(=O)c1Cl,16.2
19,O=C(Nc1ccc(N2CCOCC2)cc1)c1cccnc1,16.7
20,Cc1ccc(S(=O)(=O)N2CCN(C(=O)COC(=O)CCOc3ccc(C(C)(C)C)cc3)CC2)cc1,-15.7

# From PMC4336329 (PLoS ONE, 2015)
